The list shows a part of the results.

This test addresses T1, MBP-FoxP1dN (Mus musculus, UniProt P58462 326-579).
T1 sequence: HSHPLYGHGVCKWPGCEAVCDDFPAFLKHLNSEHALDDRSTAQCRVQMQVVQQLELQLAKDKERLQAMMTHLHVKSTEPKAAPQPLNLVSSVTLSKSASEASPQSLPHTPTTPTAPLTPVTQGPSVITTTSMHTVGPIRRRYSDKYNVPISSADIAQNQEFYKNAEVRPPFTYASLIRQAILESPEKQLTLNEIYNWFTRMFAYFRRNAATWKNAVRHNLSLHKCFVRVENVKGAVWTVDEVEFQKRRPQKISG
In words: PD-seq (MBP pull-down with sequencing); 20 mM Tris-HCl pH 7.5, 100 mM NaCl, 1.5 mM MgCl2, 0.4 uM protein, 0.1 uM dsDNA library, 30 min, room temperature, amylose pull-down; high values mean tight binding. To be noted: protein: recombinant; tags: His6-MBP; chain copies: 2; dsDNA, one strand shown. The essentials: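 Mouse FoxP3 or FoxP1 fragment lacking the N-terminus, His6-MBP-tagged and expressed in E. coli, was incubated at 0.4 µM with 0.1 µM Klenow-filled degenerate double-stranded DNA library for 30 min at room temperature in Tris pH 7.5 buffer with NaCl and MgCl2. Complexes captured on amylose resin were washed three times and their DNA sequenced on Illumina. Binding is reads-per-million enrichment of pull-down over input, replicates pooled.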
In the case of “GATGATTGTTCTCCCAGCTGATGAATTCTTTCATTCGAGTAAACAAATTTTCCTAATCTTTCTGTTCAAGCGCCATCTAC”, the binding signal is 0.879 RPM ratio (pull-down/input).

As for “GATGATTGTTCTCCCAGCTGATGAATTTCTTACATCGAGTAAACAAATTTTCCTAATCTTTCTGTTCAAGCGCCATCTAC”, the binding signal was 0.931 RPM ratio (pull-down/input).

Take “GATGATTGTTCTCCCAGCTGATGAATTTGGGAAATCGAGTAAACAAATTTTCCTAATCTTTCTGTTCAAGCGCCATCTAC”: the binding signal is 1.01 RPM ratio (pull-down/input).

Regarding “GATGATTGTTCTCCCAGCTGATGAATTTTCCAGCTCGAGTAAACAAATTTTCCTAATCTTTCTGTTCAAGCGCCATCTAC”, the binding signal is 0.814 RPM ratio (pull-down/input).

In the case of “GATGATTGTTCTCCCAGCTGATGAATTCGTATGATCGAGTAAACAAATTTTCCTAATCTTTCTGTTCAAGCGCCATCTAC”, the binding signal was 0.926 RPM ratio (pull-down/input).

For the sequence “GATGATTGTTCTCCCAGCTGATGAATTGCATGGCTCGAGTAAACAAATTTTCCTAATCTTTCTGTTCAAGCGCCATCTAC”, the binding signal is 0.983 RPM ratio (pull-down/input).

As to “GATGATTGTTCTCCCAGCTGATGAATTACTAACCTCGAGTAAACAAATTTTCCTAATCTTTCTGTTCAAGCGCCATCTAC”, the binding signal is 1.09 RPM ratio (pull-down/input).

Take “GATGATTGTTCTCCCAGCTGATGAATTGCCTGCGTCGAGTAAACAAATTTTCCTAATCTTTCTGTTCAAGCGCCATCTAC”: the binding signal is 1.05 RPM ratio (pull-down/input).

Turning to “GATGATTGTTCTCCCAGCTGATGAATTCGGCCCCTCGAGTAAACAAATTTTCCTAATCTTTCTGTTCAAGCGCCATCTAC”, the binding signal was 0.769 RPM ratio (pull-down/input).

Regarding “GATGATTGTTCTCCCAGCTGATGAATTCTGAACTTCGAGTAAACAAATTTTCCTAATCTTTCTGTTCAAGCGCCATCTAC”, the binding signal was 0.823 RPM ratio (pull-down/input).

Regarding “GATGATTGTTCTCCCAGCTGATGAATTCACCCAATCGAGTAAACAAATTTTCCTAATCTTTCTGTTCAAGCGCCATCTAC”, the binding signal is 0.965 RPM ratio (pull-down/input).

With “GATGATTGTTCTCCCAGCTGATGAATTGCTACTCTCGAGTAAACAAATTTTCCTAATCTTTCTGTTCAAGCGCCATCTAC”, the binding signal was 1.11 RPM ratio (pull-down/input).

As for “GATGATTGTTCTCCCAGCTGATGAATTGGCCCATTCGAGTAAACAAATTTTCCTAATCTTTCTGTTCAAGCGCCATCTAC”, the binding signal is 0.877 RPM ratio (pull-down/input).

As to “GATGATTGTTCTCCCAGCTGATGAATTGCTCATATCGAGTAAACAAATTTTCCTAATCTTTCTGTTCAAGCGCCATCTAC”, the binding signal is 1.06 RPM ratio (pull-down/input).

As for “GATGATTGTTCTCCCAGCTGATGAATTCCACAGCTCGAGTAAACAAATTTTCCTAATCTTTCTGTTCAAGCGCCATCTAC”, the binding signal is 0.752 RPM ratio (pull-down/input).

Turning to “GATGATTGTTCTCCCAGCTGATGAATTGTGCTCTTCGAGTAAACAAATTTTCCTAATCTTTCTGTTCAAGCGCCATCTAC”, the binding signal was 1.12 RPM ratio (pull-down/input).

With “GATGATTGTTCTCCCAGCTGATGAATTATCGAAATCGAGTAAACAAATTTTCCTAATCTTTCTGTTCAAGCGCCATCTAC”, the binding signal was 1.06 RPM ratio (pull-down/input).

Take “GATGATTGTTCTCCCAGCTGATGAATTGTCAAGCTCGAGTAAACAAATTTTCCTAATCTTTCTGTTCAAGCGCCATCTAC”: the binding signal was 1.01 RPM ratio (pull-down/input).

As to “GATGATTGTTCTCCCAGCTGATGAATTTTCAAATTCGAGTAAACAAATTTTCCTAATCTTTCTGTTCAAGCGCCATCTAC”, the binding signal is 0.956 RPM ratio (pull-down/input).

For the sequence “GATGATTGTTCTCCCAGCTGATGAATTCCATAGCTCGAGTAAACAAATTTTCCTAATCTTTCTGTTCAAGCGCCATCTAC”, the binding signal is 0.79 RPM ratio (pull-down/input).

Consider “GATGATTGTTCTCCCAGCTGATGAATTTCCATGTTCGAGTAAACAAATTTTCCTAATCTTTCTGTTCAAGCGCCATCTAC”, for which the binding signal is 0.909 RPM ratio (pull-down/input).

On to “GATGATTGTTCTCCCAGCTGATGAATTAGGCACCTCGAGTAAACAAATTTTCCTAATCTTTCTGTTCAAGCGCCATCTAC”, for which the binding signal is 0.847 RPM ratio (pull-down/input).

In the case of “GATGATTGTTCTCCCAGCTGATGAATTGGCTCATTCGAGTAAACAAATTTTCCTAATCTTTCTGTTCAAGCGCCATCTAC”, the binding signal is 0.903 RPM ratio (pull-down/input).

With “GATGATTGTTCTCCCAGCTGATGAATTCAATCTTTCGAGTAAACAAATTTTCCTAATCTTTCTGTTCAAGCGCCATCTAC”, the binding signal was 0.863 RPM ratio (pull-down/input).

On to “GATGATTGTTCTCCCAGCTGATGAATTGGAGCAATCGAGTAAACAAATTTTCCTAATCTTTCTGTTCAAGCGCCATCTAC”, for which the binding signal is 1.05 RPM ratio (pull-down/input).

As to “GATGATTGTTCTCCCAGCTGATGAATTCTTGTTTTCGAGTAAACAAATTTTCCTAATCTTTCTGTTCAAGCGCCATCTAC”, the binding signal is 2.77 RPM ratio (pull-down/input).

Regarding “GATGATTGTTCTCCCAGCTGATGAATTTTATCGCTCGAGTAAACAAATTTTCCTAATCTTTCTGTTCAAGCGCCATCTAC”, the binding signal was 0.912 RPM ratio (pull-down/input).

With “GATGATTGTTCTCCCAGCTGATGAATTGGCGCTTTCGAGTAAACAAATTTTCCTAATCTTTCTGTTCAAGCGCCATCTAC”, the binding signal was 0.936 RPM ratio (pull-down/input).

On to “GATGATTGTTCTCCCAGCTGATGAATTCCCATCGTCGAGTAAACAAATTTTCCTAATCTTTCTGTTCAAGCGCCATCTAC”, for which the binding signal was 0.811 RPM ratio (pull-down/input).

As to “GATGATTGTTCTCCCAGCTGATGAATTTTCGAAGTCGAGTAAACAAATTTTCCTAATCTTTCTGTTCAAGCGCCATCTAC”, the binding signal was 0.853 RPM ratio (pull-down/input).

As to “GATGATTGTTCTCCCAGCTGATGAATTTGACGATTCGAGTAAACAAATTTTCCTAATCTTTCTGTTCAAGCGCCATCTAC”, the binding signal was 0.901 RPM ratio (pull-down/input).

With “GATGATTGTTCTCCCAGCTGATGAATTACAAATGTCGAGTAAACAAATTTTCCTAATCTTTCTGTTCAAGCGCCATCTAC”, the binding signal was 1.44 RPM ratio (pull-down/input).
